Measured values published in PubChem BioAssay AID485294 (National Center for Advancing Translational Sciences (NCATS), 2010).
The whole screen tested about 370,000 compounds, of which about 150 (0.041%) were called active. This list was built around the results that the source calls inconclusive (neither active nor inactive); the mix of calls is not that of the screen. Calls come from the whole dose curve; as a rule, active = well fitted inhibition curve with a large enough effect; inconclusive = small, poorly fitted or top-dose-only effect; inactive = flat fitted curve, though single readings scatter. No potency is given beside an inconclusive call; the fits are too rough.

Biological target: Beta-lactamase (Escherichia coli (strain K12)) (UniProt P00811)
Test: qHTS Inhibitors of AmpC Beta-Lactamase (assay with detergent); note: nearly all actives have a fitted effect of over 25% in size
Details: AmpC hydrolysis of nitrocefin, absorbance 480 nm, 0.01% Triton; series mostly up to 114 µM
Summary of the method: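 AmpC (5.3 nM in the dispensed reagent) in 20 mM phosphate pH 7.0 with 0.01% (detergent screen) or 0.0001% Triton X-100 was preincubated with compounds for 15 min at room temperature. Nitrocefin was then added from an 800 uM solution, and hydrolysis was followed at 480 nm.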
Potency is the fitted concentration of half-maximal effect; tags give direction and shape of the fitted curve.

Sequence of UniProt P00811 (P00811 whole entry, looked up): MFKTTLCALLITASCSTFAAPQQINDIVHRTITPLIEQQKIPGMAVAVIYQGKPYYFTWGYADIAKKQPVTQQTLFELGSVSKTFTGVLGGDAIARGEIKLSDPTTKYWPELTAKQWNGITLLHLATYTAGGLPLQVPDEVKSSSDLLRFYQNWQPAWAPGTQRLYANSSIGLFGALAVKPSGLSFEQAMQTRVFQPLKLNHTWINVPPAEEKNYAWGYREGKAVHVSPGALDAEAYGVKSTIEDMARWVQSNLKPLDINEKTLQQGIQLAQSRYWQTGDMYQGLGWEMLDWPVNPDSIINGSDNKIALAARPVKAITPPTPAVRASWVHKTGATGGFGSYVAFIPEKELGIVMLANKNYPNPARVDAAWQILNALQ

SMILES | Potency
COc1cccc(OC)c1C(=O)Nc1ccc(Br)c(C(=O)c2ccccc2)c1 | inconclusive [inhibitor, full curve, poor fit]
COc1ccc(-n2c(SC)nnc2-c2c[nH]c3ccccc23)cc1 | inconclusive [inhibitor, partial curve]
CCOC(=O)c1ccc(NC(=O)C2=C(C)Nc3nc(SCc4ccc(Cl)cc4)nn3C2c2ccc(OC)cc2)cc1 (centres undefined) | inactive
O=C(COc1cccnc1[N+](=O)[O-])N1CCN(S(=O)(=O)c2ccccc2)CC1 | inconclusive [inhibitor, full curve, poor fit]
COCCC(=O)NC1CCCc2c1cnn2-c1cccc(C)c1C (centres undefined) | inactive
COc1ccc(C2NC(=O)CS2)cc1 (centres undefined) | inconclusive [inhibitor, partial curve, poor fit]
CC(C)CC(=O)Nc1c2c(nn1-c1ccc(F)cc1)CS(=O)(=O)C2 | inactive
O=C(Nc1nnc(CCS(=O)(=O)c2ccc(Br)cc2)s1)c1ccc([N+](=O)[O-])cc1 | inconclusive [inhibitor, full curve, poor fit]
O=C(NCc1ccccc1)C1c2ccccc2Oc2ccccc21 | inconclusive [inhibitor, full curve]
CC(C)C(=O)Nc1ncc2c(n1)CC(c1cccs1)CC2=O (centres undefined) | inactive
CC(Oc1ccc2c(c1)oc(=O)c1ccccc12)C(=O)NC(Cc1c[nH]c2ccc(O)cc12)C(=O)O (centres undefined) | inconclusive [inhibitor, full curve, poor fit]
O=C(N/N=C/c1ccc(O)cc1)c1cc[n+](Cc2ccccc2)cc1 | inconclusive [inhibitor, partial curve]
CC(C)(C)n1cnc2cc(NCc3ccccc3O)ccc21 | inactive
CCCN(C(=O)CSc1cc(-c2ccccc2)c2ccc(OC)cc2n1)C1CCS(=O)(=O)C1 (centres undefined) | inactive
CN1C(=O)c2cccc(NC(=O)CCc3ccccc3)c2C1=O | inconclusive [inhibitor, full curve, poor fit]
O=C(C(Cl)Cl)N1CCN(c2ccccn2)CC1 | inconclusive [inhibitor, full curve]
CC(=O)Nc1ccc(C2(O)COc3ccccc3O2)cc1 (centres undefined) | inconclusive [inhibitor, full curve]
Cc1csc2ncc(C(=O)NCc3ccccc3Cl)c(=O)n12 | inconclusive [inhibitor, partial curve, poor fit]
Cc1ccccc1OCC(=O)N/N=C/c1cc2ccccc2nc1Cl | inconclusive [inhibitor, partial curve, poor fit]
